# Reference: PubChem BioAssay AID686979 (National Center for Advancing Translational Sciences (NCATS), 2013)
# Several values for one entry are separate records, joined by “and”; a condition that tells them apart may be missing. Identical values can stand only once. About 50,000 (12%) of roughly 420,000 compounds were called active. The inconclusive results got no clear call from the source; some entries with a clear call stand among them for comparison. The call rests on the fitted dose curve; in most records, active means well fitted inhibition curve with a large enough effect; inconclusive means small, poorly fitted or top-dose-only effect; inactive means flat fitted curve, though single readings scatter. Where the call is inconclusive, the potency comes from a doubtful curve fit.
# Assay: qHTS for Inhibitors of human tyrosyl-DNA phosphodiesterase 1 (TDP1): qHTS in cells in presence of CPT; further: nearly all actives have a fitted effect of over 55% in size
# Settings: chicken DT40 Tdp1-/-;hTDP1 cells + 20 nM CPT, ATP luminescence, 48 h; activity change, negative = growth inhibition: at 46.2 µM (top of the series) unless noted
# Summary of the method: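 Chicken DT40 Tdp1-/- cells complemented with human TDP1, 400 cells/well, exposed to compounds plus 20 nM camptothecin for at least 48 h at 37 C; viability read as ATP content by CellTiter-Glo luminescence.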
# On the % scale 0 is the no-effect control and ±100 the full control effect; potency means the concentration at half of the fitted maximal effect; tags describe the fitted curve by direction and shape.
SMILES,Potency,"activity change, negative = growth inhibition"
Cc1ccc2sc(N(CCN(C)C)C(=O)c3ccc(S(=O)(=O)N4CC(C)OC(C)C4)cc3)nc2c1C (stereo not drawn),"inconclusive: 29.1 µM [inhibitor, single point]",–
C#CCn1c(=NC(=O)c2cc(-c3cccs3)nc3ccccc23)sc2cc(S(N)(=O)=O)ccc21,"inconclusive: 18.4 µM [inhibitor, partial curve, poor fit]",–
Cc1ccccc1NC(=S)N1CCN(c2ccccc2Cl)CC1,active: 14.6 µM,–
CSc1nc2nccc(-c3ccc(Oc4ccccc4)cc3)n2n1,"inconclusive: 29.1 µM [inhibitor, single point]",–
O=C(Nc1nc2ccc(Cl)cc2s1)c1ccc(N2CCCCC2)c([N+](=O)[O-])c1,active: 16.4 µM,–
COc1ccc(-c2csc3ncnc(N4CCN(S(=O)(=O)c5ccc(C)cc5)CC4)c23)cc1,"inconclusive: 18.4 µM [inhibitor, single point]",–
NC(=O)c1ccccc1NC(=O)CC1(CC(=O)O)CCCC1,inactive,–
Cc1nc(NCC2CCCO2)c2nnn(Cc3ccccc3Cl)c2n1 (stereo not drawn),inactive,–
CN(C)/C(=N\S(=O)(=O)c1ccccc1)c1ccc(Cl)cc1,inactive,–
COc1cc2c(=O)c(C(=O)c3ccc(C)c(C)c3)cn(Cc3ccccc3F)c2cc1OC,active: 18.4 µM,–
O=C(NC1CCCCCCC1)C1CCC(CNc2c(N3CCCC3)c(=O)c2=O)CC1 (stereo not drawn),"inconclusive: 13 µM [inhibitor, partial curve]",–
COC(=O)[C@]12CCCCC=C1N(Cc1ccc(Cl)cc1Cl)C(=O)[C@H](CC(=O)N1CCN(C(=O)c3ccco3)CC1)C2,"inconclusive: 29.1 µM [inhibitor, single point]",–
C=C(C)COc1ccc(-c2ncncc2-c2ccc(OC)cc2)c(O)c1,inactive,–
CCCN1CCC(NC(=O)c2cccc(Oc3ccccc3)c2)CC1,"inconclusive: 29.1 µM [inhibitor, single point]",–
CC(NC(=S)Nc1ccc(S(=O)(=O)N2CCOCC2)cc1)C1CC2CCC1C2 (stereo not drawn),"inconclusive: 29.1 µM [inhibitor, single point]",–
CC1CCN(C(=O)COC(=O)CCC(=O)c2ccc(Cl)cc2)CC1,inactive,–
O=C(CCc1nc2ccccc2c(=O)[nH]1)NCCN1C(=O)S/C(=C\c2ccc(OC(F)F)cc2)C1=O,"inconclusive: 8.2 µM [inhibitor, partial curve]",–
O=C(NCCN1CCCC1)C1CCC(=O)N(CCCN2CCOCC2)C1 (stereo not drawn),inactive,–
O=C1/C(=C/c2cccc([N+](=O)[O-])c2)CCc2ccccc21,"inconclusive: 29.1 µM [inhibitor, single point]",–
CCN(CC)C(=O)[C@H]1CC(CC(=O)NCc2cccc(C(F)(F)F)c2)C(=O)N2CCc3c([nH]c4ccccc34)[C@]12C (stereo partly drawn),active: 14.6 µM,–
CNS(=O)(=O)c1cccc(C(=O)OCc2cc(=O)oc3c(C)c(O)ccc23)c1,"inconclusive: 23.1 µM [inhibitor, single point]",–
CC1(C(=O)Nc2ccc(F)c(Cl)c2)Cc2c(-c3ccc(C(N)=O)cc3)ccnc2O1 (stereo not drawn),active: 20.6 µM,–
O=C(Nc1ccccc1)N1CCC(c2nc(-c3ccc(S(=O)(=O)N4CCOCC4)cc3)no2)CC1,active: 4.11 µM,–
CCCCCNC(=O)C(c1ccc(OC)cc1)n1c(=O)c(-c2cc3ccccc3[nH]2)nc2ccccc21 (stereo not drawn),"inconclusive: 23.1 µM [inhibitor, single point]",–
Cc1ccc(OCC(=O)NNC(=O)C2CSC3(C)CCC(=O)N23)cc1C (stereo not drawn),inactive,–

SMILES,Potency,"activity change, negative = growth inhibition"
O=[N+]([O-])c1ccccc1CN1CCN(Cc2c[nH]c3ccccc23)CC1,active: 2.91 µM,–
COc1cc(NC(=O)C2CC(c3c(F)cccc3Cl)=NO2)c(OC)cc1Cl (stereo not drawn),"inconclusive: 23.1 µM [inhibitor, single point]",–
Cc1ccccc1NC(=O)N1C2CCCC1CC(NC(=O)C(C)(C)C)C2 (stereo not drawn),inactive,–
CC1=C(C(=O)OCc2ccc(C)cc2)C(c2ccccc2F)CC(=O)N1 (stereo not drawn),"inconclusive: 23.1 µM [inhibitor, single point]",–
COc1cc(C(=O)N2CCN(c3cccc(C)c3C)CC2)ccc1OCC(=O)N1CCOCC1,"inconclusive: 16.4 µM [inhibitor, single point]",–
COc1ccccc1CNS(=O)(=O)c1c(C(=O)N2CCCCC2)c(C)n(C)c1C,inactive,–
CCN1C(=O)CC(C(=O)NCCc2ccc(S(N)(=O)=O)cc2)SC1=Nc1ccc(OC)cc1 (stereo not drawn),inactive,–
CN(C(=O)CN1C(=O)c2ccccc2S1(=O)=O)C1CCCCC1,inactive,–
O=C(NCc1ccccc1F)C1CCN(c2nnc(-n3cccc3)s2)CC1,"inconclusive: 16.4 µM [inhibitor, single point]",–
COc1ccc(NC(=S)N(CCc2c(C)[nH]c3ccccc23)Cc2ccco2)cc1,"inconclusive: 29.1 µM [inhibitor, single point]",–
O=C(N/N=C/c1ccc(N2CCOCC2)cc1)c1ccccc1OCCOc1ccccc1,active: 16.4 µM,–
CC(C)[C@@H](C(=O)N1CCN(Cc2ccc3c(c2)OCO3)CC1)n1nnc2ccccc2c1=O,active: 20.6 µM,–
CCOC(=O)c1nc(-c2ccccc2)oc1N1CCOCC1,"inconclusive: 25.9 µM [inhibitor, single point]",–
Cc1cc(/C=C(\C#N)C(=O)Nc2ccccc2)c(C)n1-c1cccnc1,"inconclusive: 29.1 µM [inhibitor, single point]",–
COc1cc(NC(=O)C2CCCCC2)c2ncccc2c1,"inconclusive: 29.1 µM [inhibitor, single point]",–
OC(C#CCN1CCCC1)(c1ccccc1)c1cccnc1 (stereo not drawn),inactive,–
CCOc1cccc(-c2c(C(=O)N/N=C/c3ccsc3)nnn2-c2nonc2N)c1,inactive,–
COc1ccc2c(c1)c(=O)c(C(=O)c1ccccc1)cn2CC(=O)Nc1ccc2c(c1)OCCO2,"inconclusive: 20.6 µM [inhibitor, single point]",–
COc1cccc(CNc2nc3cc(-c4ccccc4CO)sc3c(=O)n2C)c1,active: 18.4 µM,–
COc1cc(C=O)ccc1OS(=O)(=O)c1ccccc1[N+](=O)[O-],"inconclusive: 29.1 µM [inhibitor, single point]",–
COc1ccccc1NC(=O)CSc1nccc(-c2ccco2)n1,inactive,–
O=c1[nH]c(-c2ccccc2)c(-c2ccccc2)nc1[N+](=O)[O-],–,inconclusive: -34.8% [inhibitor]
Nc1ncnc2c1ncn2C1O[C@H](CO)[C@@H](O)[C@@H]1O (stereo partly drawn),active: 0.461 µM,–
CC1CC(Nc2ccccc2)c2ccccc2N1C(=O)c1ccccc1F (stereo not drawn),active: 1.84 µM,–
CCc1cc(C)cc(OCCNC(=O)c2cncc(Br)c2)c1,"inconclusive: 20.6 µM [inhibitor, single point]",–

SMILES,Potency,"activity change, negative = growth inhibition"
COc1ccc(C(=O)N[C@H](C(=O)Nc2sccc2C(N)=O)C(C)C)cc1,–,inconclusive: -32.2% [inhibitor]
CC1(N=Cc2cc(Cl)ccc2O)COP(=O)(Nc2ccccc2)OC1 (stereo not drawn),inactive,–
CCOC(=O)[C@]12CCCC=C1N(Cc1ccco1)C(=O)[C@H](CC(=O)NCC1CCCCC1)C2,"inconclusive: 18.4 µM [inhibitor, single point]",–
COc1ccccc1-n1cc(-c2ccc(Br)cc2)[nH]c1=S,active: 16.4 µM,–
FC(F)(F)c1nnc(-c2ccccc2)nc1Sc1ccc(Cl)cc1,active: 5.17 µM,–
c1cc2c3c(cccc3c1)NC(c1ccc3c(c1)OCO3)N2,active: 23.1 µM,–
CCN1C(=O)c2cccc3c(NC(=O)c4ccc(S(=O)(=O)N5CCOCC5)cc4)ccc1c23,"inconclusive: 29.1 µM [inhibitor, single point]",–
Nc1nc(N)nc(-c2ccc(Cl)c(Cl)c2)n1,active: 20.6 µM,–
Oc1ccc2c(c1)OCC1(O)Cc3cc(O)c(O)cc3C21 (stereo not drawn),active: 8.2 µM and active: 6.51 µM,–
CC1CCN(C2=NC(=O)/C(=C/c3cccc(O)c3)S2)CC1,"inconclusive: 16.4 µM [inhibitor, single point]",–
O=C(NCCS(=O)(=O)N1CCN(c2ccc(F)cc2)CC1)C12CC3CC(CC(C3)C1)C2,active: 18.4 µM,–
COc1cccc(CNC(=O)C2CCN(c3nc4ccc(Cl)cc4[nH]3)CC2)c1,active: 20.6 µM,–
Cc1cc(C(=O)NCCc2ccc(Cl)cc2)c(C)o1,inactive,–
COc1cc(C(=O)NC2CCCNC2)cc(OC)c1OC (stereo not drawn),inactive,–
c1ccc(-c2ccc3c(n2)CCCO3)cc1,inactive,–
Cc1ccc(Cn2c(C(=O)Nc3cccc(Cl)c3)cc3sccc32)cc1,active: 18.4 µM,–
COCCn1c(SC(C)C(=O)Nc2ncc(Cl)cc2Cl)nc2ccccc21 (stereo not drawn),–,inconclusive: -20.2% [inhibitor]
O=C(c1cnn(-c2nccc(-c3ccccc3F)n2)c1C1CC1)N1CCN(CCO)CC1,–,inactive: 18.9% [at 9.04 µM]
Cc1ccc(Nc2nc(N)nc(CSc3ncccn3)n2)cc1,"inconclusive: 10.3 µM [inhibitor, single point]",–
COC(=O)C1C(c2ccccc2)C(C(=O)OCc2ccco2)C1c1ccccc1 (stereo not drawn),"inconclusive: 18.4 µM [inhibitor, partial curve]",–
O=C(NCCn1cc(SCc2ccc(F)cc2)c2ccccc21)c1c(F)cccc1F,"inconclusive: 23.1 µM [inhibitor, single point] and inconclusive: 29.1 µM [inhibitor, single point]",–
CC(C)c1nc(SCc2ccccn2)c2c(=O)n(C)c(=O)n(C)c2n1,"inconclusive: 29.1 µM [inhibitor, single point]",–
Cc1ccc(C2c3c(-c4ccccc4O)n[nH]c3C(=O)N2CCCO)cc1 (stereo not drawn),active: 18.4 µM,–
